This note sets out measurements from the antibiotic and cytotoxicity screens of Wong et al. (2023).

Structures are written as SMILES. This is one part of the list.

The test system of the experiment is HSkMC (human skeletal muscle cells). The experiment can be described thus: cytotoxicity call (relative viability < 0.9). The conditions noted are these: 10 µM.
For the compound `Cn1cnc(S(=O)(=O)N2C[C@H](O)COC[C@H]3O[C@H](CC(=O)NCc4cccc(F)c4)CC[C@@H]32)c1`, the cytotoxicity call is “inactive”.
As for `C#CCCCCCCCCCCC[C@H](O)C[C@H](O)CO.C=CCCCCCCCCCCC[C@H](O)C[C@H](O)CO`, the entry is “inactive”; as for `Cc1ccc(S(=O)(=O)N(C)C[C@@H]2OCCCC[C@H](C)Oc3ccc(NS(C)(=O)=O)cc3C(=O)N([C@H](C)CO)C[C@H]2C)cc1`, “inactive”; as for `C[C@@H]1CN([C@@H](C)CO)C(=O)c2cc(NS(C)(=O)=O)ccc2O[C@@H](C)CCCCO[C@@H]1CN(C)C(=O)Nc1ccc(C(F)(F)F)cc1`, “inactive”.
As for `COc1ccc(S(=O)(=O)N2CC(NC(=O)Cn3ccc(=O)n(C)c3=O)C2)cc1`, the entry is “inactive”; as for `COC(=O)[C@@H](NC(=O)Cn1cc(COc2ccccc2/C=C(C)/C=C/C(=O)NO)nn1)c1ccccc1`, “inactive”.
For `C[C@H](CO)N1C[C@H](C)[C@@H](CN(C)C(=O)CN2CCOCC2)Oc2ncc(/C=C/c3ccccc3)cc2C1=O`, the cytotoxicity call is “inactive”.
With `NCC[C@H]1CC[C@@H](NC(=O)C2CCCCC2)[C@@H](CO)O1` the entry was “inactive”; with `CNC(=O)C[C@@H]1CC[C@H]2[C@@H](COc3ccc(NC(=O)c4ccc(C(F)(F)F)cc4)cc3C(=O)N2C)O1`, “inactive”; with `COc1cc2c(cc1OC)-c1c(oc3c4c(ccc3c1=O)OC(C)(C)C=C4)CO2`, “inactive”.
`C[C@@H]1CCCCO[C@H](CN(C)C(=O)c2ccncc2)[C@H](C)CN([C@H](C)CO)C(=O)c2cc(NS(C)(=O)=O)ccc2O1`: the cytotoxicity call is “inactive”.
With `COCC(=O)Nc1ccc2c(c1)C(=O)N(C)C[C@H](OC)[C@@H](C)CN(C(=O)Cc1ccccn1)[C@H](C)CO2` the entry was “inactive”; with `Cn1c(S(=O)(=O)CC(N)=O)nc2ccccc21`, “inactive”; with `COc1ccc(CN(C)C[C@@H]2OCCCC[C@@H](C)Oc3ccc(NC(=O)Nc4ccc(F)cc4)cc3C(=O)N([C@@H](C)CO)C[C@H]2C)cc1`, “inactive”.
As for `COc1ccc(NC(=O)N(C)C[C@@H]2OCCCC[C@H](C)Oc3ccc(NS(=O)(=O)c4ccc(C)cc4)cc3C(=O)N([C@H](C)CO)C[C@@H]2C)cc1`, the entry is “inactive”.
As for `C[C@H](CO)N1C[C@H](C)[C@H](CN(C)S(=O)(=O)c2ccc(Cl)cc2)Oc2ccc(NC(=O)CCCN(C)C)cc2CC1=O`, the entry is “inactive”.
With `CNC[C@@H]1Oc2ccc(NS(=O)(=O)c3cn(C)cn3)cc2C(=O)N([C@@H](C)CO)C[C@H]1C`, the cytotoxicity call was “inactive”.
As for `CN1C(=O)c2cc(NC(=O)c3cccs3)ccc2OC[C@H]2O[C@H](CC(=O)NCCN3CCCCC3)CC[C@@H]21`, the entry is “inactive”; as for `O=C(C[C@@H]1C=C[C@@H](NC(=O)CN2CCOCC2)[C@@H](CO)O1)NC1CCC1`, “inactive”.
With `Cc1noc(C)c1S(=O)(=O)Nc1ccc2c(c1)C(=O)N([C@@H](C)CO)C[C@H](C)[C@@H](CN(C)S(=O)(=O)c1cn(C)cn1)O2` the entry was “inactive”; with `Cc1noc(C)c1S(=O)(=O)N(C)C[C@H]1Oc2ccc(NS(=O)(=O)c3ccccc3)cc2CC(=O)N([C@@H](C)CO)C[C@H]1C`, “inactive”.
With `C[C@@H]1CN([C@@H](C)CO)C(=O)c2cc(NC(=O)Cc3ccccc3)ccc2O[C@@H]1CN(C)S(=O)(=O)c1cn(C)cn1` the entry was “inactive”.
For the compound `C[C@@H]1CN([C@H](C)CO)S(=O)(=O)c2ccc(C#CC3(O)CCCC3)cc2O[C@@H]1CN(C)C(=O)Cc1ccccc1`, the cytotoxicity call was “inactive”.
As to `COc1ccc(S(=O)(=O)N(C)C[C@H]2Oc3ccc(NS(=O)(=O)c4cccs4)cc3C(=O)N([C@@H](C)CO)C[C@@H]2C)cc1`, the cytotoxicity call was “inactive”.
With `COCCNC(=O)C[C@@H]1CC[C@@H]2[C@H](COC[C@@H](O)CN2C(=O)Nc2ccc3c(c2)OCO3)O1` the entry was “inactive”.
As for `Oc1ccc(C2(c3ccccc3F)CCC(F)(F)CC2)cc1`, the entry is “inactive”; as for `C[C@H](CO)N1C[C@H](C)[C@H](CN(C)S(C)(=O)=O)Oc2ncc(Br)cc2C1=O`, “inactive”; as for `Cc1ccc(S(=O)(=O)N(C)C[C@H]2OCCCC[C@H](C)Oc3ccc(NC(=O)Nc4cccc5ccccc45)cc3C(=O)N([C@H](C)CO)C[C@H]2C)cc1`, “inactive”.
With `COC(=O)C[C@H]1CC[C@H](N)[C@@H](CO)O1` the entry was “inactive”; with `CCOC(=O)N(C)C[C@H]1OCc2cn(nn2)CCCC(=O)N([C@H](C)CO)C[C@@H]1C`, “inactive”; with `COc1ccc(NC(=O)N(C)C[C@@H]2Oc3c(NC(=O)Nc4ccc(C(F)(F)F)cc4)cccc3C(=O)N([C@H](C)CO)C[C@@H]2C)cc1`, “inactive”.
